# Data: the supplement of paper PMC8728848
# The list shows a part of the results.
# B1: Gal-9-hFc (Mus musculus), O08573-2 (protein)
# chain: MALFSAQSPYINPIIPFTGPIQGGLQEGLQVTLQGTTKSFAQRFVVNFQNSFNGNDIAFHFNPRFEEGGYVVCNTKQNGQWGPEERKMQMPFQKGMPFELCFLVQRSEFKVMVNKKFFVQYQHRVPYHLVDTIAVSGCLKLSFITFQTQNFRPAHQAPMAQTTIHMVHSTPGQMFSTPGIPPVVYPTPAYTIPFYTPIPNGLYPSKSIMISGNVLPDATRFHINLRCGGDIAFHLNPRFNENAVVRNTQINNSWGQEERSLLGRMPFSRGQSFSVWIICEGHCFKVAVNGQHMCEYYHRLKNLQDINTLEVAGDIQLTHVQT
# Key:
# Assay in all cases: glycan array binding signal (z-score within array); higher = stronger binding
# Conditions in all cases: glycan notation: IUPAC condensed, linker removed
# [1] = target: Gal(b1-4)GlcNAc(b1-3)Gal(b1-4)GlcNAc(b1-3)[Gal(b1-4)GlcNAc(b1-3)Gal(b1-4)GlcNAc(b1-6)]GalNAc
# How it was run: (§1)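 From the Consortium for Functional Glycomics database, 3228 arrays were curated, keeping only those whose protein sequence was available. Binding is given as a within-array Z-score averaged across arrays sharing a protein sequence and across linkers. Negative Z-scores can be read as non-binding.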
# [2] = target: Gal(b1-4)GlcNAc(b1-3)Gal(b1-4)GlcNAc(b1-6)[Gal(b1-3)]GalNAc
# How it was run: as §1
# [3] = target: Gal(b1-4)GlcNAc(b1-3)Gal(b1-4)[Fuc(a1-3)]GlcNAc(b1-3)Gal(b1-4)[Fuc(a1-3)]GlcNAc
# How it was run: as §1
# [4] = target: Gal(b1-4)GlcNAc(b1-3)GalNAc
# How it was run: as §1
# [5] = target: Gal(b1-4)GlcNAc(b1-3)[Fuc(a1-3)GlcNAc(b1-6)]Gal(b1-4)Glc
# How it was run: as §1
# [6] = target: Gal(b1-4)GlcNAc(b1-3)[Gal(b1-4)GlcNAc(b1-6)]Gal(b1-4)GlcNAc
# How it was run: as §1
# [7] = target: Gal(b1-4)GlcNAc(b1-3)[GlcNAc(b1-6)]Gal(b1-4)GlcNAc
# How it was run: as §1
# [8] = target: Gal(b1-4)GlcNAc(b1-6)Gal(b1-4)GlcNAc
# How it was run: as §1
# [9] = target: Gal(b1-4)GlcNAc(b1-6)GalNAc
# How it was run: as §1
# [10] = target: Gal(b1-4)GlcNAc(b1-6)[Gal(b1-3)]GalNAc
# How it was run: as §1
# [11] = target: Gal(b1-4)GlcNAc(b1-6)[Gal(b1-4)GlcNAc(b1-3)]GalNAc
# How it was run: as §1
# Gal(b1-4)GlcNAc6P = target: Gal(b1-4)GlcNAc6P
# How it was run: as §1
# Gal(b1-6)Gal = target: Gal(b1-6)Gal
# How it was run: as §1
# Gal3S(b1-3)GalNAc = target: Gal3S(b1-3)GalNAc
# How it was run: as §1
# Gal3S(b1-3)GlcNAc = target: Gal3S(b1-3)GlcNAc
# How it was run: as §1
# [12] = target: Gal3S(b1-3)[Fuc(a1-4)]GlcNAc
# How it was run: as §1
# Gal3S(b1-4)Glc = target: Gal3S(b1-4)Glc
# How it was run: as §1
# Gal3S(b1-4)Glc6S = target: Gal3S(b1-4)Glc6S
# How it was run: as §1
# Gal3S(b1-4)GlcNAc = target: Gal3S(b1-4)GlcNAc
# How it was run: as §1
# [13] = target: Gal3S(b1-4)[Fuc(a1-3)]Glc6S
# How it was run: as §1
# [14] = target: Gal3S(b1-4)[Fuc(a1-3)]GlcNAc
# How it was run: as §1
# [15] = target: Gal3S(b1-4)[Fuc(a1-3)]GlcNAc6S
# How it was run: as §1
# Gal3S4S(b1-4)GlcNAc = target: Gal3S4S(b1-4)GlcNAc
# How it was run: as §1
# Gal3S6S(b1-4)GlcNAc = target: Gal3S6S(b1-4)GlcNAc
# How it was run: as §1
# Gal3S6S(b1-4)GlcNAc6S = target: Gal3S6S(b1-4)GlcNAc6S
# How it was run: as §1
# Gal4S(b1-4)GlcNAc = target: Gal4S(b1-4)GlcNAc
# How it was run: as §1
# Gal4S6S(b1-4)GlcNAc = target: Gal4S6S(b1-4)GlcNAc
# How it was run: as §1
# Gal6P(b1-4)GlcNAc = target: Gal6P(b1-4)GlcNAc
# How it was run: as §1
# Gal6S(b1-3)GlcNAc = target: Gal6S(b1-3)GlcNAc
# How it was run: as §1
# Gal6S(b1-3)GlcNAc6S = target: Gal6S(b1-3)GlcNAc6S
# How it was run: as §1
# Gal6S(b1-4)Glc = target: Gal6S(b1-4)Glc
# How it was run: as §1
# Gal6S(b1-4)Glc6S = target: Gal6S(b1-4)Glc6S
# How it was run: as §1
# Gal6S(b1-4)GlcNAc = target: Gal6S(b1-4)GlcNAc
# How it was run: as §1
# Gal6S(b1-4)GlcNAc6S = target: Gal6S(b1-4)GlcNAc6S
# How it was run: as §1
# GalNAc(a1-3)Gal = target: GalNAc(a1-3)Gal
# How it was run: as §1
# GalNAc(a1-3)GalNAc = target: GalNAc(a1-3)GalNAc
# How it was run: as §1
# [16] = target: GalNAc(a1-3)GalNAc(b1-3)Gal(a1-4)Gal(b1-4)Glc
# How it was run: as §1
binder,measurement,setting,value
B1,glycan array binding signal (z-score),[1],0.807
same,glycan array binding signal (z-score),[2],0.343
same,glycan array binding signal (z-score),[3],-0.386
same,glycan array binding signal (z-score),[4],-0.461
same,glycan array binding signal (z-score),[5],-0.336
same,glycan array binding signal (z-score),[6],-0.337
same,glycan array binding signal (z-score),[7],2.07
same,glycan array binding signal (z-score),[8],-0.356
same,glycan array binding signal (z-score),[9],-0.082
same,glycan array binding signal (z-score),[10],0.33
same,glycan array binding signal (z-score),[11],-0.339
same,glycan array binding signal (z-score),Gal(b1-4)GlcNAc6P,0.047
same,glycan array binding signal (z-score),Gal(b1-6)Gal,0.505
same,glycan array binding signal (z-score),Gal3S(b1-3)GalNAc,1.45
same,glycan array binding signal (z-score),Gal3S(b1-3)GlcNAc,1.26
same,glycan array binding signal (z-score),[12],0.257
same,glycan array binding signal (z-score),Gal3S(b1-4)Glc,1.42
same,glycan array binding signal (z-score),Gal3S(b1-4)Glc6S,4.35
same,glycan array binding signal (z-score),Gal3S(b1-4)GlcNAc,0.61
same,glycan array binding signal (z-score),[13],0.428
same,glycan array binding signal (z-score),[14],-0.299
same,glycan array binding signal (z-score),[15],3.57
same,glycan array binding signal (z-score),Gal3S4S(b1-4)GlcNAc,-0.2
same,glycan array binding signal (z-score),Gal3S6S(b1-4)GlcNAc,-0.138
same,glycan array binding signal (z-score),Gal3S6S(b1-4)GlcNAc6S,1.57
same,glycan array binding signal (z-score),Gal4S(b1-4)GlcNAc,-0.51
same,glycan array binding signal (z-score),Gal4S6S(b1-4)GlcNAc,-0.278
same,glycan array binding signal (z-score),Gal6P(b1-4)GlcNAc,-0.364
same,glycan array binding signal (z-score),Gal6S(b1-3)GlcNAc,-0.289
same,glycan array binding signal (z-score),Gal6S(b1-3)GlcNAc6S,-0.365
same,glycan array binding signal (z-score),Gal6S(b1-4)Glc,0.187
same,glycan array binding signal (z-score),Gal6S(b1-4)Glc6S,0.568
same,glycan array binding signal (z-score),Gal6S(b1-4)GlcNAc,-0.293
same,glycan array binding signal (z-score),Gal6S(b1-4)GlcNAc6S,0.342
same,glycan array binding signal (z-score),GalNAc(a1-3)Gal,-0.203
same,glycan array binding signal (z-score),GalNAc(a1-3)GalNAc,-0.382
same,glycan array binding signal (z-score),[16],-0.404
